Source: the supplement of paper PMC10126150
Values marked as one replicate rest on one cluster of the flow cell; about a third of the high ones do not repeat.

Tested on: ATP
Experiment: switch fluorescence ratio, 500 uM ATP over buffer (Cy3 cluster intensity, sum of 5 cycles each) (fold (ratio)); higher = stronger signal-on switching upon ATP binding; sequences stand for … in TCGTCGGCAGCGTCAGATGTGTATAAGAGACAGTTTTTTTTTTTTTTTTTTTTTTTTT…TC
Conditions: aptamer strand: ATP DNA aptamer (quencher-CACCTGGGGGAGTATTGCGGAGGAAGG + anchor), 100 nM annealed; ATP concentration: 500 uM; one replicate
Outline: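 The quencher-labelled ATP aptamer, at 100 nM, was annealed to Cy3-labelled switching-strand clusters on a modified Illumina MiSeq flow-cell. The clusters were imaged in selection buffer, then after 15 min with 500 uM ATP at 22 °C, and this buffer/ATP cycle ran five times with NaOH stripping and re-annealing between runs. Per-cluster fluorescence ratios, summed target-cycle over summed buffer-cycle Cy3 intensity, were averaged per switch-domain sequence. Clusters outside 100-1000 RFU were excluded.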
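Also: ATP exposure 15 min at 22 °C before imaging.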

TTATTTGTG gave a switch fluorescence ratio of 1.03.

Work on GCGCTAGCGT yielded a switch fluorescence ratio of 0.965.

In the case of ATGATACGTT, the switch fluorescence ratio is reported as 1.04.

AGTATACGTA showed a switch fluorescence ratio of 1.05.

In the case of ACTCGTAACG, the switch fluorescence ratio is reported as 1.01.

With TTCCGCCGGT the switch fluorescence ratio was 1.18.

GCGTCATCGC showed a switch fluorescence ratio of 1.02.

TGCCTCTGAC gave a switch fluorescence ratio of 1.07.

AAGGAAGTTC was tested, and the switch fluorescence ratio was 0.933.

With CCTCGGCCAG the switch fluorescence ratio was 2.56.

With CGGTGCAGCG the switch fluorescence ratio was 1.02.

For TTGGAAATTC, the switch fluorescence ratio was 1.81.

For CTCACAGACA, the switch fluorescence ratio was 1.29.

CGTGTTGCGT gave a switch fluorescence ratio of 0.926.

GGCACTATTT was tested, and the switch fluorescence ratio was 0.997.

TTCTGGGAGA gave a switch fluorescence ratio of 0.988.

AAAGGTTAGC showed a switch fluorescence ratio of 1.01.

In the case of TGGGACTTGA, the switch fluorescence ratio is reported as 1.02.

CATGGGAGGA showed a switch fluorescence ratio of 0.994.

TCGCAAGCAT showed a switch fluorescence ratio of 1.77.

Work on ATTATATGTT yielded a switch fluorescence ratio of 1.02.

CTTGTCGAAT showed a switch fluorescence ratio of 1.02.

TGCGTGATCA showed a switch fluorescence ratio of 0.993.

TGTTTTCA showed a switch fluorescence ratio of 0.994.

In the case of AAGGGTAGGG, the switch fluorescence ratio is reported as 1.

For TAAAGTCCAT, the switch fluorescence ratio was 1.07.

ATGGTATGCC showed a switch fluorescence ratio of 1.06.

AGGACTGGTT gave a switch fluorescence ratio of 0.961.

GACGACGTAG was tested, and the switch fluorescence ratio was 1.02.

In the case of GGGTACCTTT, the switch fluorescence ratio is reported as 1.02.

GCGCAGTTGG showed a switch fluorescence ratio of 1.03.

CGCTTAGAGA gave a switch fluorescence ratio of 1.02.

CACGGGAGAG showed a switch fluorescence ratio of 1.06.

With CATTTCATGA the switch fluorescence ratio was 0.993.

ATGTGAAAGT gave a switch fluorescence ratio of 1.05.

In the case of AGAGCGGACA, the switch fluorescence ratio is reported as 1.02.

TGTGTATTGC gave a switch fluorescence ratio of 0.995.

GTTCGATTCT was tested, and the switch fluorescence ratio was 0.982.

For CTAAAAGTTA, the switch fluorescence ratio was 1.03.

With CCGTAGTGTT the switch fluorescence ratio was 2.05.

Work on ATTGAAGTGT yielded a switch fluorescence ratio of 0.983.

Sequence CGCGGTTATG has a switch fluorescence ratio of 1.03.

Work on ACTAGTCCTT yielded a switch fluorescence ratio of 0.982.

Sequence CGTACCTGGG has a switch fluorescence ratio of 1.03.

TTTTCGGCG was tested, and the switch fluorescence ratio was 1.24.

GCGTTAGACA was tested, and the switch fluorescence ratio was 1.07.

TAGGGAAAGG was tested, and the switch fluorescence ratio was 0.965.

Sequence ATCGAAAATC has a switch fluorescence ratio of 1.03.

TAGTGGACAT gave a switch fluorescence ratio of 0.998.

TCGGAAAGTC showed a switch fluorescence ratio of 0.978.

Work on GGGGTTTAAA yielded a switch fluorescence ratio of 0.984.

With CGGTGTTTCT the switch fluorescence ratio was 0.959.

TTCGGACTGA gave a switch fluorescence ratio of 1.1.

Work on AAGCTGTATC yielded a switch fluorescence ratio of 1.06.

For TTGATACAAT, the switch fluorescence ratio was 1.

In the case of AAACTGGTTC, the switch fluorescence ratio is reported as 1.01.

GGATCAGGCA gave a switch fluorescence ratio of 0.969.

Work on CGTAGGGAAC yielded a switch fluorescence ratio of 1.15.

GAGGGGTCAA gave a switch fluorescence ratio of 1.01.

Sequence CTATTAACGT has a switch fluorescence ratio of 1.03.

ATTCTGCAGG gave a switch fluorescence ratio of 1.07.

Work on CCCTATGGTT yielded a switch fluorescence ratio of 0.995.

CGCTTAGGTA gave a switch fluorescence ratio of 0.99.

Sequence CTGGGGCCCA has a switch fluorescence ratio of 1.01.

TCTCGTAAGA was tested, and the switch fluorescence ratio was 1.05.

In the case of TTAGGACGGA, the switch fluorescence ratio is reported as 1.03.

AGTAGATGTA showed a switch fluorescence ratio of 1.03.

TAAAGGGC was tested, and the switch fluorescence ratio was 1.06.

For CGGGACCATG, the switch fluorescence ratio was 0.99.

CAACGCCGTT was tested, and the switch fluorescence ratio was 1.08.

GAGATCAGGC was tested, and the switch fluorescence ratio was 0.961.

With AGTAACTGT the switch fluorescence ratio was 0.987.

CTTCATAGTT was tested, and the switch fluorescence ratio was 0.985.

For CAAGCCGTTA, the switch fluorescence ratio was 1.02.

Work on ACGAGTAAAG yielded a switch fluorescence ratio of 0.987.

GCCGGGCCTT showed a switch fluorescence ratio of 0.952.

In the case of CGGAAAACTT, the switch fluorescence ratio is reported as 1.09.

Work on TTCAAGTCTA yielded a switch fluorescence ratio of 0.962.

With AGAAAAGGAT the switch fluorescence ratio was 1.02.

GAGGGAATAA showed a switch fluorescence ratio of 1.46.

Work on CTATACACAG yielded a switch fluorescence ratio of 1.1.

For CCCCAGTTTC, the switch fluorescence ratio was 1.11.

For TGTCGTTTAT, the switch fluorescence ratio was 1.01.

In the case of GGATGTACCA, the switch fluorescence ratio is reported as 0.993.

AGGTCATATC was tested, and the switch fluorescence ratio was 1.02.

GATAATCTG gave a switch fluorescence ratio of 0.997.

Work on AGGTTCCGCA yielded a switch fluorescence ratio of 1.53.

AACAGCCATC showed a switch fluorescence ratio of 1.12.

Work on GGACGTACTT yielded a switch fluorescence ratio of 1.65.

GGCTTTAAG showed a switch fluorescence ratio of 1.01.

With GTAGTGGACC the switch fluorescence ratio was 0.986.

With TTAACGCAC the switch fluorescence ratio was 1.89.

With GGCACGAAGG the switch fluorescence ratio was 1.04.

AACAATGTTC was tested, and the switch fluorescence ratio was 1.04.

In the case of CAATTTCTAT, the switch fluorescence ratio is reported as 0.935.

With CAAAGGAATG the switch fluorescence ratio was 1.02.

With GCCATGTTCG the switch fluorescence ratio was 1.03.

Work on CGGATACGTC yielded a switch fluorescence ratio of 0.963.

With ACCAATTTAC the switch fluorescence ratio was 1.22.

With GTGAACATAA the switch fluorescence ratio was 1.04.

CTGAGTGGCT was tested, and the switch fluorescence ratio was 1.

GTTGACCCAC was tested, and the switch fluorescence ratio was 1.34.

GTTCCAAGTG gave a switch fluorescence ratio of 1.05.

For TTCTTGTAGC, the switch fluorescence ratio was 1.05.

With CATCCACGGG the switch fluorescence ratio was 1.21.

CGAAAGAACC gave a switch fluorescence ratio of 1.01.

TATTAATAGC showed a switch fluorescence ratio of 0.964.

For TAGACGTC, the switch fluorescence ratio was 0.985.

CAAGTCTTTA was tested, and the switch fluorescence ratio was 0.944.

Work on ATCGAGTTTG yielded a switch fluorescence ratio of 0.961.

In the case of GGGTTATCCG, the switch fluorescence ratio is reported as 1.07.

Work on TTGAGAAAGC yielded a switch fluorescence ratio of 0.992.

In the case of GGAGGAGTAT, the switch fluorescence ratio is reported as 0.927.

With TGGGTAGACA the switch fluorescence ratio was 1.

GGGTGTCAGG gave a switch fluorescence ratio of 1.01.

For GGACGAAGCG, the switch fluorescence ratio was 1.06.

With ATGGCGATGT the switch fluorescence ratio was 1.01.

TAAAAAAATT was tested, and the switch fluorescence ratio was 1.02.

In the case of ATTTCGGGCG, the switch fluorescence ratio is reported as 0.974.

Work on TTCCCGTAAT yielded a switch fluorescence ratio of 2.11.

TGATAGTCGG was tested, and the switch fluorescence ratio was 0.959.

Sequence TCCTCGTTTT has a switch fluorescence ratio of 1.08.

Work on CTCTTAAAC yielded a switch fluorescence ratio of 1.02.

Sequence ATTTCTCGTG has a switch fluorescence ratio of 0.975.

Sequence TTATTCACGC has a switch fluorescence ratio of 1.02.

With GGGATGCGGT the switch fluorescence ratio was 0.982.

ATTCAGTTCT was tested, and the switch fluorescence ratio was 0.981.

In the case of TAGGATTC, the switch fluorescence ratio is reported as 1.05.

Work on GTATTGGGTC yielded a switch fluorescence ratio of 1.03.

CTTTTTGAAA showed a switch fluorescence ratio of 0.957.

In the case of AGAATGTGTC, the switch fluorescence ratio is reported as 1.03.

In the case of AGTTCGTCTA, the switch fluorescence ratio is reported as 0.993.

Work on TGACTAATAT yielded a switch fluorescence ratio of 0.982.

AATAATCCGA gave a switch fluorescence ratio of 1.07.

In the case of GCCCGAACTT, the switch fluorescence ratio is reported as 1.06.

In the case of TCAAAAGGTA, the switch fluorescence ratio is reported as 0.976.

For TTTTGGTTT, the switch fluorescence ratio was 0.968.

With TCACCCTCG the switch fluorescence ratio was 1.06.

CGACGTTGTA was tested, and the switch fluorescence ratio was 1.24.

Sequence GTATTCAGCT has a switch fluorescence ratio of 0.985.

In the case of TATTTCTACT, the switch fluorescence ratio is reported as 1.02.

Work on GGCATCAGCA yielded a switch fluorescence ratio of 1.01.

For TTCAAAAGTT, the switch fluorescence ratio was 1.02.

In the case of ATTAGCTAA, the switch fluorescence ratio is reported as 1.02.

Work on GACATGGTTT yielded a switch fluorescence ratio of 0.956.

With GAGAACAGGG the switch fluorescence ratio was 1.02.

ACACGAGCCC gave a switch fluorescence ratio of 0.985.

Sequence AATGTATTC has a switch fluorescence ratio of 0.976.

For ACGGTAGGCA, the switch fluorescence ratio was 1.01.

With CCGGACCCGG the switch fluorescence ratio was 1.07.

Work on GGTTTATAAC yielded a switch fluorescence ratio of 1.09.

CTAGGGGCG showed a switch fluorescence ratio of 1.01.

Sequence GATTATAGGG has a switch fluorescence ratio of 0.997.
